This is one part of the list. The energies were worked out here from pooled read counts, against the library average; single values are noisy.
biological target: T1, Pho4 (S. cerevisiae) (UniProt P07270); experiment: relative binding free energy (BET-seq); higher = weaker binding; settings: reference: library average
T1 sequence: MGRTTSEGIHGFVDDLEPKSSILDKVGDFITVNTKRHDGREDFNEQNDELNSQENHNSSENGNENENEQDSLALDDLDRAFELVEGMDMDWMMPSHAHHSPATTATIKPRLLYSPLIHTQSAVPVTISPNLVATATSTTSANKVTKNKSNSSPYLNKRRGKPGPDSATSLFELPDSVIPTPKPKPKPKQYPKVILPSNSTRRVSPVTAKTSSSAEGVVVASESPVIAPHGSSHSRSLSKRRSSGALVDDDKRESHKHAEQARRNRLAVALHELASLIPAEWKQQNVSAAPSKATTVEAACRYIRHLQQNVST

Sequence	relative binding free energy
GTGTTCACGTGGTACT	0.43 kcal/mol
TTACACACGTGGTGGT	-0.16 kcal/mol
GGAAACACGTGGCGGG	0.02 kcal/mol
TTTGTCACGTGATACA	0.32 kcal/mol
AATGTCACGTGTCAGG	0.19 kcal/mol
CTCATCACGTGGGGGT	-0.07 kcal/mol
AATGACACGTGGTTTT	0 kcal/mol
ATAGTCACGTGAACTG	0.32 kcal/mol
TTATCCACGTGTGCGG	0 kcal/mol
GTGGCCACGTGAATGG	0.22 kcal/mol
TTTGGCACGTGACTTG	0.1 kcal/mol
AGAAACACGTGTGTGT	0.17 kcal/mol
TAGGACACGTGTGTGT	0.05 kcal/mol
TTAATCACGTGGCCTG	0.17 kcal/mol
ATCCGCACGTGTTGGG	-0.06 kcal/mol
GGGGGCACGTGTTGGA	-0.04 kcal/mol
GTCGGCACGTGAGTAT	0.31 kcal/mol
GGGGACACGTGAGCGG	0.23 kcal/mol
TGTGACACGTGACGTT	-0.02 kcal/mol
GTTGGCACGTGACTTG	-0.01 kcal/mol
CTGTGCACGTGGGAGT	-0.15 kcal/mol
GTGAGCACGTGGAACG	0.05 kcal/mol
CGTATCACGTGGGTTG	-0.12 kcal/mol
ATGTACACGTGGTGTC	-0.26 kcal/mol
ATGTACACGTGATGTC	0.23 kcal/mol

Sequence	relative binding free energy
ATTTTCACGTGGGACT	0.44 kcal/mol
GGGCGCACGTGAATGA	0.35 kcal/mol
AGCGGCACGTGGGGAG	-0.25 kcal/mol
ATTGTCACGTGTTGAA	-0.02 kcal/mol
TTATGCACGTGTTGCT	-0.03 kcal/mol
TCATACACGTGTTGAT	0.11 kcal/mol
CATTTCACGTGTGCGT	0.27 kcal/mol
TTTCCCACGTGTTGGT	0.04 kcal/mol
TTGGGCACGTGACTGA	0.09 kcal/mol
TGTGTCACGTGTGTCA	0.19 kcal/mol
TTCTTCACGTGCGGTA	0.33 kcal/mol
AACTGCACGTGGGGGG	-0.06 kcal/mol
TCATTCACGTGGGGGA	0.16 kcal/mol
GTTGTCACGTGCTAGG	0.17 kcal/mol
GTGCTCACGTGGTTAG	0.21 kcal/mol
GGGTACACGTGCGGCG	0.06 kcal/mol
ATTGGCACGTGTCTTA	-0.02 kcal/mol
TTGCTCACGTGGCGCG	0.16 kcal/mol
TAGAACACGTGTGGGT	-0.03 kcal/mol
TCTTGCACGTGGCAGT	0.09 kcal/mol
TTGAGCACGTGCGAGT	-0.05 kcal/mol
AGTAGCACGTGGTTGC	-0.07 kcal/mol
GGCCTCACGTGCGTGG	0.11 kcal/mol
ATGTTCACGTGTGTCT	0.15 kcal/mol
TTTGTCACGTGTTTGC	0.03 kcal/mol

Sequence	relative binding free energy
CGGTGCACGTGTCGGT	-0.06 kcal/mol
TGGTGCACGTGGCATT	-0.07 kcal/mol
GGGCTCACGTGAATAG	0.55 kcal/mol
TATTGCACGTGGTCAG	-0.08 kcal/mol
ATTGTCACGTGGTCTG	-0.07 kcal/mol
GAGCTCACGTGGTTGA	0.34 kcal/mol
TTGAGCACGTGGACGA	0.06 kcal/mol
GTTTACACGTGGGCGG	-0.01 kcal/mol
GGTATCACGTGATGAT	0.38 kcal/mol
CTTGGCACGTGCGGAT	-0.13 kcal/mol
GGGGGCACGTGCCCGT	-0.18 kcal/mol
ATGTGCACGTGGGTTA	-0.19 kcal/mol
CATGGCACGTGAGGGT	0.08 kcal/mol
CGGTCCACGTGGGGAG	-0.1 kcal/mol
GTGGACACGTGGTTAG	-0.02 kcal/mol
AAGTTCACGTGCTATT	0.27 kcal/mol
TTGGACACGTGTTAAG	0.15 kcal/mol
ATGGTCACGTGTAGTC	0.17 kcal/mol
ATTATCACGTGGTTGT	-0.04 kcal/mol
TAGGACACGTGTGCTT	-0.11 kcal/mol
GTTTGCACGTGGGAGG	0.01 kcal/mol
TCATTCACGTGTAATT	0.2 kcal/mol
GCCGGCACGTGGGGGT	-0.21 kcal/mol
TAATTCACGTGGGGGG	0.24 kcal/mol
TGGCACACGTGGGGAG	-0.15 kcal/mol

Sequence	relative binding free energy
TTGCGCACGTGTTCGG	-0.12 kcal/mol
TTGTACACGTGCAGGT	0.09 kcal/mol
GGGGACACGTGTGTTT	0.11 kcal/mol
TATGGCACGTGTAGTC	0.04 kcal/mol
CTGGTCACGTGAGTTA	0.31 kcal/mol
GGTAGCACGTGATTCG	0.09 kcal/mol
AGTGCCACGTGTGGCA	-0.01 kcal/mol
TGATTCACGTGTGAAC	0.45 kcal/mol
TGATTCACGTGGAGAG	0.24 kcal/mol
TAGGGCACGTGCCTGG	-0.15 kcal/mol
TAGTTCACGTGTAATA	0.24 kcal/mol
CGGAGCACGTGGGGTG	-0.3 kcal/mol
GAGGGCACGTGCGGTC	-0.17 kcal/mol
AGGTGCACGTGGGGGT	-0.2 kcal/mol
ATGTTCACGTGGTTCC	0.29 kcal/mol
GAGGCCACGTGGTGAG	-0.16 kcal/mol
TGTGGCACGTGCACAT	-0.1 kcal/mol
GCGGGCACGTGAGGAG	0.22 kcal/mol
GTCAGCACGTGAAGGG	0.27 kcal/mol
GTTGTCACGTGTTTCT	0.12 kcal/mol
ATAAGCACGTGTAGTA	-0.1 kcal/mol
TTGCTCACGTGCTTGT	-0.04 kcal/mol
GGAAACACGTGGTGTG	-0.05 kcal/mol
TGTTGCACGTGAGGCG	0.02 kcal/mol
TATGTCACGTGGCGGA	0.06 kcal/mol

Sequence	relative binding free energy
GTTATCACGTGCTATT	0.33 kcal/mol
GCGTACACGTGGAGTG	0.03 kcal/mol
GGGCGCACGTGAGGCA	0.18 kcal/mol
GTTCTCACGTGATGGT	0.27 kcal/mol
GATAGCACGTGAGATG	0.23 kcal/mol
GGTTGCACGTGTATTA	0.19 kcal/mol
GTAGTCACGTGTGGCC	0.16 kcal/mol
ATTATCACGTGGTCTT	0.02 kcal/mol
CTTGCCACGTGGGGGT	-0.34 kcal/mol
TTTATCACGTGATTTG	0.3 kcal/mol
TTTATCACGTGGACAT	0.06 kcal/mol
GAAATCACGTGTTTTG	0.21 kcal/mol
CGTACCACGTGGGGGT	-0.37 kcal/mol
AGTGACACGTGTGGAG	0.1 kcal/mol
TTCGACACGTGGAGTG	-0.01 kcal/mol
TTAATCACGTGTGGGC	0.21 kcal/mol
GAGTTCACGTGAAGCT	0.53 kcal/mol
ATTGGCACGTGACTGT	-0.02 kcal/mol
GGGTGCACGTGTGGTT	0.1 kcal/mol
TTTGCCACGTGGTCGT	-0.15 kcal/mol
TATTTCACGTGCTGGG	0.34 kcal/mol
AGGAGCACGTGTGGAG	-0.02 kcal/mol
CGAGTCACGTGATTTT	0.31 kcal/mol
ACTGGCACGTGTGGAG	-0.03 kcal/mol
GCCGGCACGTGAGTGT	0.26 kcal/mol

Sequence	relative binding free energy
TGCGGCACGTGGGACG	-0.27 kcal/mol
CTGGACACGTGTGGGG	0.22 kcal/mol
TGGACCACGTGTGTAG	0 kcal/mol
GTTCACACGTGTGGAT	0.13 kcal/mol
AAGAGCACGTGTCTTG	0.02 kcal/mol
AGGTGCACGTGAATAT	0.15 kcal/mol
TATTGCACGTGGGCTG	-0.21 kcal/mol
TATTGCACGTGCAGGT	-0.14 kcal/mol
CATGGCACGTGGTTTG	-0.24 kcal/mol
GTGTCCACGTGGCGTG	-0.06 kcal/mol
ATTGGCACGTGTGCTC	-0.04 kcal/mol
TAGACCACGTGGTGGT	-0.12 kcal/mol
GACATCACGTGTGTTT	0.24 kcal/mol
GGTTGCACGTGGACTG	0.06 kcal/mol
ATTGGCACGTGTCAGG	-0.03 kcal/mol
GAAGGCACGTGGGGTC	-0.26 kcal/mol
CAGTTCACGTGTATTG	0.26 kcal/mol
GCATGCACGTGGTTAG	0.01 kcal/mol
GGTGTCACGTGCAAGG	0.04 kcal/mol
GTGTGCACGTGGAGCT	-0.13 kcal/mol
GAGATCACGTGAGGAG	0.48 kcal/mol
